In PubChem BioAssay AID1347073 (National Center for Advancing Translational Sciences (NCATS), 2019):
Out of some 45,000 compounds screened, about 200 (0.44%) were called active. Another 7% or so got no clear call; they are omitted. The call rests on the fitted dose curve; in most records, active means well fitted activation curve with a large enough effect; inconclusive means small, poorly fitted or top-dose-only effect; inactive means no such curve, though single readings can be large or run the other way. The list shows a part of the results.

assay: qHTS of TDP-43 Inhibitors: NCGC Sytravon Library Screen; details: yeast TDP-43 toxicity rescue, BacTiter-Glo growth, 24 h; at 46.1 µM (top of the series); further: 0% is about no effect; nearly all actives have a fitted effect of over 55% in size
How it was run: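 TDP-43-expressing yeast, pregrown in raffinose, seeded at OD600 0.02 in galactose medium with compound for 24 hr at 30 deg C. Growth read by BacTiter-Glo luminescence, so rescue of toxicity appears as activation.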

Q: Which growth rescue (activation) does the source give for `C[C@]12CC[C@@H](O)CC1=CCC1C2CC[C@]2(C)C(=O)[C@H](F)CC12` (stereo partly drawn) here?
A: inactive: -12.2%

Q: For `C/C(=N\N(C)c1ccccc1)c1c(O)[nH]c(=O)[nH]c1=O`, which growth rescue (activation) is on record?
A: inactive: -3.66%

Q: For `C[n+]1c2ccccc2nc2ccc(NCCO)cc21`, which growth rescue (activation) is on record?
A: inactive: -32.8%

Q: With `Cc1cccc(OP(=O)(Oc2cccc(C)c2)OC(c2ccccc2)C(F)(F)F)c1` (stereo not drawn) as the molecule, how does the growth rescue (activation) read?
A: inactive: -6.78%

Q: With `C=CCn1c(O)c(/C=N/N2CCCCC2)c(=O)[nH]c1=O` as the molecule, how does the growth rescue (activation) read?
A: inactive: 1.11%

Q: For `CC1CN(c2ccc([N+](=O)[O-])c(N3CCCCC3)c2)CCN1` (stereo not drawn), which growth rescue (activation) is on record?
A: inactive: 11.1%

Q: With `Cc1cc(/C=C2\C(=O)NC(=O)N(Cc3ccco3)C2=O)c(C)n1-c1ccc(O)cc1` as the molecule, how does the growth rescue (activation) read?
A: inactive: 3.28%

Q: With `CCOCCc1c(O)[nH]c(=S)[nH]c1=O` as the molecule, how does the growth rescue (activation) read?
A: inactive: 3.18%

Q: For `Clc1ccc(OCC#CCN2CCCC2)cc1`, which growth rescue (activation) is on record?
A: inactive: 2%

Q: Which growth rescue (activation) does the source give for `O=[N+]([O-])c1ccc2c(c1)C(c1ccccc1)=NCCN2` here?
A: inactive: 10.6%

Q: Which growth rescue (activation) does the source give for `CCc1ccc(N2C(=O)NC(=O)/C(=C/c3cccn3CCOc3ccc(C)cc3)C2=O)cc1` here?
A: inactive: 9.66%

Q: Which growth rescue (activation) does the source give for `CN(C)c1ccc(/C=C2\C(=O)NC(=O)N(Cc3ccc(F)cc3)C2=O)cc1` here?
A: inactive: 2.38%

Q: With `CCOc1ccc(Cl)cc1CNCCc1ccc(F)cc1` as the molecule, how does the growth rescue (activation) read?
A: inactive: 5.24%

Q: With `CCN1CCN(c2nc([N+](=O)[O-])nn2C)CC1` as the molecule, how does the growth rescue (activation) read?
A: inactive: -4.58%

Q: Which growth rescue (activation) does the source give for `Cc1ccc(-n2c(-c3ccc([N+](=O)[O-])cc3)nc3ccccc3c2=O)cc1` here?
A: inactive: 28.7%

Q: With `O=C(c1ccc(Cl)cc1)C1CCCN(Cc2cccc3cccnc23)C1` (stereo not drawn) as the molecule, how does the growth rescue (activation) read?
A: inactive: 9.23%

Q: With `CN1CCN2c3ccccc3CC3(C(=O)N(C)C(=O)N(C)C3=O)C2C1` (stereo not drawn) as the molecule, how does the growth rescue (activation) read?
A: inactive: -0.703%

Q: With `CCc1ccc(N2C(=O)NC(=O)/C(=C\c3cc(C)n(-c4cc(C(=O)O)cc(C(=O)O)c4)c3C)C2=O)cc1` as the molecule, how does the growth rescue (activation) read?
A: inactive: 3.91%

Q: Which growth rescue (activation) does the source give for `O=C(N/N=C\C1C(=O)NC(=S)N(c2ccccc2)C1=O)c1ccc(O)cc1` (stereo not drawn) here?
A: inactive: 1.54%

Q: For `COc1ccc(Cc2c(O)[nH]c(=S)[nH]c2=O)cc1`, which growth rescue (activation) is on record?
A: inactive: -18.9%

Q: Which growth rescue (activation) does the source give for `C[C@]12CCC(=O)C=C1C=CC1C2CC[C@]2(C)C(=O)CCC12` (stereo partly drawn) here?
A: inactive: 23.8%

Q: For `CC(Cc1ccsc1)NCc1cn[nH]c1-c1ccc(F)cc1F` (stereo not drawn), which growth rescue (activation) is on record?
A: inactive: 3.67%

Q: Which growth rescue (activation) does the source give for `Cc1cc(C=C2C(=O)N(C)C(=S)N(C)C2=O)c(C)n1C1CCCCC1` here?
A: inactive: -6.99%

Q: Which growth rescue (activation) does the source give for `CC(=O)Nc1ccccc1C(=O)OCC(=O)Nc1ncccn1` here?
A: inactive: 8.23%

Q: With `CCOC(=O)c1c(NS(=O)(=O)c2ccccc2)n(CCCOC)c2nc3ccccc3nc12` as the molecule, how does the growth rescue (activation) read?
A: inactive: 3.2%

Q: For `CCC1(C)OC(c2ccccc2)=C/C(=C/C=C2C(=O)NC(=O)NC2=O)O1` (stereo not drawn), which growth rescue (activation) is on record?
A: inactive: -7.99%

Q: With `CCN(CCO)c1ccc(N=Cc2c(O)n(C)c(=S)[nH]c2=O)cc1` as the molecule, how does the growth rescue (activation) read?
A: inactive: -3.35%

Q: Which growth rescue (activation) does the source give for `CCn1c(=N)n(Cc2ccccc2F)c2ccccc21` here?
A: inactive: -1.4%

Q: Which growth rescue (activation) does the source give for `COc1cc(OC)c(OC)cc1CNCCc1ccc(F)cc1` here?
A: inactive: -3.63%

Q: For `Cn1cc(/C=C2\C(=O)NC(=O)N(c3ccccc3)C2=O)c2ccccc21`, which growth rescue (activation) is on record?
A: inactive: -22.7%

Q: For `COc1ccc(-n2c(Cc3cccc([N+](=O)[O-])c3)nc3ccccc3c2=O)cc1`, which growth rescue (activation) is on record?
A: inactive: -21.2%

Q: Which growth rescue (activation) does the source give for `O=c1[nH]c(O)c(/C=C2\C=Nc3ccc(OCc4ccccc4)cc32)c(=O)[nH]1` here?
A: inactive: 8.7%

Q: With `O=C(COC(=O)Cc1ccccc1)Nc1cc(S(=O)(=O)N2CCOCC2)ccc1N1CCCC1` as the molecule, how does the growth rescue (activation) read?
A: inactive: 12.5%

Q: With `COc1cc(C(=O)OC2C[C@H]3CC[C@@H](C2)N3C)ccc1O` (stereo partly drawn) as the molecule, how does the growth rescue (activation) read?
A: inactive: 4.94%

Q: With `CCN1/C(=C\C=C\C2=[N+](CC)c3ccccc3C2(C)C)C(C)(C)c2ccccc21` as the molecule, how does the growth rescue (activation) read?
A: inactive: -93%

Q: For `O=C1NC(=O)C(CCc2ccncc2)(CCc2ccncc2)C(=O)N1CCc1ccccc1`, which growth rescue (activation) is on record?
A: inactive: 5.55%

Q: Which growth rescue (activation) does the source give for `COc1ccc(C(=O)C2CCCN(Cc3cccc(C)n3)C2)c(OC)c1` (stereo not drawn) here?
A: inactive: 3.02%

Q: For `CN(C)CCN=Cc1c(O)n(Cc2ccc3c(c2)OCO3)c(=S)[nH]c1=O`, which growth rescue (activation) is on record?
A: inactive: 14.8%

Q: Which growth rescue (activation) does the source give for `C[C@]12CCC(=O)C=C1CCC1C2CC[C@@]2(C)C1CC[C@@H]2O` (stereo partly drawn) here?
A: inactive: 21.5%

Q: With `O=C(O)Cn1cc(/C=C2\C(=O)NC(=O)N(c3ccc(Br)cc3)C2=O)c2ccccc21` as the molecule, how does the growth rescue (activation) read?
A: inactive: 6.84%

Q: Which growth rescue (activation) does the source give for `CN1/C(=C\C=C2C(=O)NC(=S)NC2=O)C(C)(C)c2ccccc21` here?
A: inactive: -12.6%

Q: Which growth rescue (activation) does the source give for `O=C(N/N=C/c1c(O)n(CCC2=CCCCC2)c(=S)[nH]c1=O)c1ccccc1` here?
A: inactive: 7.67%

Q: Which growth rescue (activation) does the source give for `O=P(Nc1cccnc1)(Oc1ccccc1)Oc1ccccc1` here?
A: inactive: -0.129%

Q: With `COc1ccccc1N1CCN(Cc2cc(C)c(C)cc2O)CC1` as the molecule, how does the growth rescue (activation) read?
A: inactive: 13.7%

Q: With `CSc1ncc(/C=C2/C(=O)NC(=O)N(c3ccc(C)cc3)C2=O)cn1` as the molecule, how does the growth rescue (activation) read?
A: inactive: 3.69%

Q: Which growth rescue (activation) does the source give for `COc1ccc(-n2c(O)c(/C=C3\C=Nc4ccc(Br)cc43)c(=O)[nH]c2=O)cc1` here?
A: inactive: -8.23%

Q: For `O=C(Nc1ccccc1)OC1CN=C(N[N+](=O)[O-])NC1` (stereo not drawn), which growth rescue (activation) is on record?
A: inactive: -1.8%

Q: Which growth rescue (activation) does the source give for `O=c1c2ccccc2ncn1-c1ccc([N+](=O)[O-])c(C(F)(F)F)c1` here?
A: inactive: -14.4%

Q: Which growth rescue (activation) does the source give for `O=C(CN1CCCC1)Nc1ccc(Cl)cc1C(=O)c1ccccc1` here?
A: inactive: -1.66%

Q: With `Cc1ccc(OCC(=O)Nc2ccc(Cl)cc2C(=O)c2ccccc2)cc1` as the molecule, how does the growth rescue (activation) read?
A: inactive: -1.38%

Q: Which growth rescue (activation) does the source give for `Cc1ccc(-c2nn(CCC#N)cc2C(=O)O)cc1C` here?
A: inactive: 6.74%

Q: For `Cn1c(O)c(C=NC2CCCCC2)c(=O)[nH]c1=S`, which growth rescue (activation) is on record?
A: inactive: -1.49%

Q: With `CC(C)(C)c1ccc(O)c(N=Cc2c(O)ccc3ccccc23)c1` as the molecule, how does the growth rescue (activation) read?
A: inactive: -21.4%

Q: With `C=CCn1c(O)c(/C=C2\C=Nc3ccccc32)c(=O)[nH]c1=O` as the molecule, how does the growth rescue (activation) read?
A: inactive: 1.05%

Q: With `Cn1cccc1/C=C1\C(=O)NC(=O)N(Cc2ccccc2Cl)C1=O` as the molecule, how does the growth rescue (activation) read?
A: inactive: -13.3%

Q: For `O=c1c2ccccc2nc(Cc2cccc([N+](=O)[O-])c2)n1-c1ccc(O)cc1`, which growth rescue (activation) is on record?
A: inactive: 15.5%

Q: For `Cc1ccc(C(=O)C2CN3CCC2CC3)cc1` (stereo not drawn), which growth rescue (activation) is on record?
A: inactive: 2.39%

Q: With `Nc1c(C(=O)NCC2CCCO2)c2nc3ccccc3nc2n1Cc1ccco1` (stereo not drawn) as the molecule, how does the growth rescue (activation) read?
A: inactive: 14%
